Experimental findings from the supplement of paper PMC4967469 are described below.

IC50 is the fitted dose that halves viability relative to control wells, and lower means more sensitive; fits outside the tested doses are given as limits. AUC is the area under the same curve over the 256-fold range up to the top dose, as a fraction; it is 1 without any effect and falls as sensitivity rises. Any top dose called inferred was derived from the fitted curves, not read from the paper.

As a reminder, the IC50 is the concentration needed to halve the response being measured.

Compound in the experiment: CCOc1cc2ncc(C#N)c(Nc3ccc(F)c(Cl)c3)c2cc1NC(=O)/C=C/CN(C)C [EKB-569]
The experiment is described as follows: Viability of human cancer cell lines after 72 h of drug (GDSC screen). Particulars: top dose inferred. Here is the method: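 Human cancer cell lines in 384-well plates, medium with 10% serum, drug for 72 h over a 256-fold dose range (nine 2-fold or five 4-fold steps up to the top dose). Adherent lines were fixed and stained with the nucleic acid dye Syto60, suspension lines read with resazurin; signal relative to control wells, capped at 0 and 100%. One two-parameter sigmoid per drug and line, fitted in a mixed model over all curves with the slope shared within a line.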
With “RL (B-cell lymphoma, suspension, top dose 2.5 µM)”, the AUC is 0.93 and the IC50 was more than 2.5 µM.

As for “HARA (lung squamous cell carcinoma, adherent, top dose 2.5 µM)”, the AUC was 0.782 and the IC50 was 1.23 µM.

For “Becker (glioma, adherent, top dose 2.5 µM)”, the AUC was 0.929 and the IC50 is more than 2.5 µM.

For “GI-1 (glioma, adherent, top dose 2.5 µM)”, the AUC stood at 0.95 and the IC50 is more than 2.5 µM.

Turning to “SIG-M5 (acute myeloid leukaemia, suspension, top dose 2.5 µM)”, the AUC turned out to be 0.495 and the IC50 is 0.152 µM.

Regarding “BFTC-909 (kidney, adherent, top dose 2.5 µM)”, the AUC worked out at 0.987 and the IC50 is more than 2.5 µM.

For “HPAF-II (pancreas, adherent, top dose 2.5 µM)”, the AUC amounted to 0.76 and the IC50 was determined as 1.15 µM.

For “AU565 (breast, adherent, top dose 2.5 µM)”, the AUC was 0.547 and the IC50 is 0.213 µM.

Turning to “TMK-1 (stomach, adherent, top dose 2.5 µM)”, the AUC was found to be 0.985 and the IC50 was more than 2.5 µM.

On to “KNS-42 (glioma, adherent, top dose 2.5 µM)”, for which the AUC is 0.982 and the IC50 is more than 2.5 µM.

As to “NB7 (neuroblastoma, adherent, top dose 2.5 µM)”, the AUC is 0.608 and the IC50 turned out to be 0.315 µM.

“U-2-OS (osteosarcoma, adherent, top dose 2.5 µM)”: the AUC is 0.916 and the IC50 was more than 2.5 µM.

Regarding “MDA-MB-468 (breast, adherent, top dose 2.5 µM)”, the AUC came to 0.67 and the IC50 was determined as 0.457 µM.

For “SF539 (glioma, adherent, top dose 2.5 µM)”, the AUC is 0.921 and the IC50 is more than 2.5 µM.

In the case of “VMRC-RCW (kidney, adherent, top dose 2.5 µM)”, the AUC stood at 0.956 and the IC50 was more than 2.5 µM.

In the case of “SJSA-1 (bone, adherent, top dose 2.5 µM)”, the AUC amounted to 0.939 and the IC50 is more than 2.5 µM.

“MRK-nu-1 (breast, suspension, top dose 2.5 µM)”: the AUC was 0.99 and the IC50 was more than 2.5 µM.

Regarding “KALS-1 (glioma, adherent, top dose 2.5 µM)”, the AUC turned out to be 0.941 and the IC50 is more than 2.5 µM.

For “HCC2157 (breast, suspension, top dose 2.5 µM)”, the AUC turned out to be 0.987 and the IC50 was more than 2.5 µM.

In the case of “SNU-387 (liver, adherent, top dose 2.5 µM)”, the AUC is 0.931 and the IC50 is more than 2.5 µM.

Take “OE19 (oesophagus, adherent, top dose 2.5 µM)”: the AUC amounted to 0.839 and the IC50 came out at 2.04 µM.

With “MKN45 (stomach, adherent, top dose 2.5 µM)”, the AUC was 0.948 and the IC50 was more than 2.5 µM.

For the cell line “DMS-53 (small cell lung carcinoma, adherent, top dose 2.5 µM)”, the AUC stood at 0.987 and the IC50 is more than 2.5 µM.

For “H290 (mesothelioma, adherent, top dose 2.5 µM)”, the AUC came out at 0.978 and the IC50 was more than 2.5 µM.

For the cell line “RCC-JW (kidney, adherent, top dose 2.5 µM)”, the AUC is 0.728 and the IC50 is 0.708 µM.

For the cell line “NCI-H1395 (lung adenocarcinoma, adherent, top dose 2.5 µM)”, the AUC was 0.982 and the IC50 is more than 2.5 µM.

With “TGW (neuroblastoma, adherent, top dose 2.5 µM)”, the AUC came out at 0.947 and the IC50 is more than 2.5 µM.

As for “NCI-H720 (lung carcinoid, suspension, top dose 2.5 µM)”, the AUC came out at 0.992 and the IC50 is more than 2.5 µM.

In the case of “JHOS-3 (ovary, adherent, top dose 2.5 µM)”, the AUC was found to be 0.921 and the IC50 is more than 2.5 µM.

“D-542MG (glioma, adherent, top dose 2.5 µM)”: the AUC stood at 0.984 and the IC50 is more than 2.5 µM.

Take “NCI-H1838 (lung adenocarcinoma, adherent, top dose 2.5 µM)”: the AUC came out at 0.977 and the IC50 is more than 2.5 µM.

As to “MOLT-4 (lymphoblastic leukaemia, suspension, top dose 20 µM)”, the AUC stood at 0.315 and the IC50 worked out at 0.425 µM.

In the case of “M059J (glioma, adherent, top dose 2.5 µM)”, the AUC worked out at 0.98 and the IC50 was more than 2.5 µM.

On to “HCC1954 (breast, adherent, top dose 2.5 µM)”, for which the AUC worked out at 0.756 and the IC50 is 0.987 µM.

As to “RT4 (bladder, adherent, top dose 2.5 µM)”, the AUC is 0.955 and the IC50 was more than 2.5 µM.

In the case of “NCI-H358 (lung adenocarcinoma, adherent, top dose 2.5 µM)”, the AUC came out at 0.497 and the half-maximal inhibitory concentration (IC50) was 0.153 µM.

In the case of “TE-12 (oesophagus, suspension, top dose 2.5 µM)”, the AUC stood at 0.622 and the IC50 came to 0.366 µM.

As for “COR-L311 (small cell lung carcinoma, suspension, top dose 2.5 µM)”, the AUC came to 0.933 and the IC50 is more than 2.5 µM.

For the cell line “FLO-1 (oesophagus, adherent, top dose 2.5 µM)”, the AUC came out at 0.835 and the IC50 is more than 2.5 µM.

As to “HCT-116 (large intestine, adherent, top dose 2.5 µM)”, the AUC worked out at 0.762 and the IC50 amounted to 0.854 µM.

“HOS (osteosarcoma, adherent, top dose 2.5 µM)”: the AUC came out at 0.988 and the IC50 is more than 2.5 µM.

Turning to “ESO51 (oesophagus, semi-adherent, top dose 2.5 µM)”, the AUC turned out to be 0.968 and the IC50 is more than 2.5 µM.

Take “Hep 3B2_1-7 (liver, adherent, top dose 2.5 µM)”: the AUC was found to be 0.983 and the IC50 is more than 2.5 µM.

Consider “EW-24 (Ewing sarcoma, semi-adherent, top dose 2.5 µM)”, for which the AUC worked out at 0.53 and the concentration for half-maximal inhibition (IC50) was determined as 0.187 µM.

As to “NCI-H2227 (small cell lung carcinoma, semi-adherent, top dose 2.5 µM)”, the AUC amounted to 0.977 and the IC50 is more than 2.5 µM.

Regarding “A498 (kidney, adherent, top dose 2.5 µM)”, the AUC turned out to be 0.966 and the IC50 was more than 2.5 µM.

“T47D (breast, adherent, top dose 2.5 µM)”: the AUC was 0.704 and the IC50 is 0.805 µM.

Take “LU-65 (large cell lung carcinoma, suspension, top dose 2.5 µM)”: the AUC turned out to be 0.878 and the IC50 was more than 2.5 µM.

Take “769-P (kidney, adherent, top dose 2.5 µM)”: the AUC is 0.44 and the 50% inhibitory concentration (IC50) amounted to 0.106 µM.

Take “Daudi (Burkitt lymphoma, suspension, top dose 2.5 µM)”: the AUC was found to be 0.803 and the IC50 came to 1.06 µM.

For “WM35 (melanoma, adherent, top dose 2.5 µM)”, the AUC amounted to 0.958 and the IC50 was more than 2.5 µM.

Take “SCC-9 (head and neck, adherent, top dose 2.5 µM)”: the AUC stood at 0.415 and the IC50 came out at 0.0858 µM.

On to “JHH-4 (liver, adherent, top dose 2.5 µM)”, for which the AUC is 0.987 and the IC50 was more than 2.5 µM.

For the cell line “L-540 (Hodgkin lymphoma, suspension, top dose 2.5 µM)”, the AUC was found to be 0.881 and the IC50 came to 2.12 µM.

“H2804 (mesothelioma, adherent, top dose 2.5 µM)”: the AUC worked out at 0.986 and the IC50 is more than 2.5 µM.

For “HSC-3 (head and neck, adherent, top dose 2.5 µM)”, the AUC came out at 0.944 and the IC50 is more than 2.5 µM.

“ML-1 (thyroid, adherent, top dose 2.5 µM)”: the AUC was determined as 0.843 and the IC50 is 2.22 µM.

“KM-H2 (Hodgkin lymphoma, suspension, top dose 2.5 µM)”: the AUC is 0.955 and the IC50 is more than 2.5 µM.

In the case of “SNU-61 (large intestine, adherent, top dose 2.5 µM)”, the AUC turned out to be 0.757 and the IC50 came out at 1.12 µM.

As to “no-11 (glioma, adherent, top dose 2.5 µM)”, the AUC was determined as 0.881 and the IC50 was more than 2.5 µM.

For “P32-ISH (Burkitt lymphoma, suspension, top dose 2.5 µM)”, the AUC amounted to 0.807 and the IC50 amounted to 0.919 µM.

Take “MOLP-8 (myeloma, suspension, top dose 2.5 µM)”: the AUC was 0.796 and the IC50 was determined as 1.12 µM.

As to “OCI-AML5 (acute myeloid leukaemia, suspension, top dose 2.5 µM)”, the AUC was 0.794 and the IC50 came out at 1.04 µM.

On to “DAN-G (pancreas, adherent, top dose 2.5 µM)”, for which the AUC was found to be 0.972 and the IC50 was more than 2.5 µM.

Turning to “SiHa (cervix, adherent, top dose 2.5 µM)”, the AUC stood at 0.984 and the IC50 is more than 2.5 µM.

“EVSA-T (breast, adherent, top dose 2.5 µM)”: the AUC turned out to be 0.988 and the IC50 was more than 2.5 µM.

In the case of “BICR22 (head and neck, adherent, top dose 2.5 µM)”, the AUC came out at 0.981 and the IC50 is more than 2.5 µM.
